# From article PMC4336329 (PLoS ONE, 2015)
# The campaign covered roughly 310,000 compounds. About 14,000 (4.5%) showed an effect of 50% or more. The effect is printed as a negative number. This is one part of the list.
# Target: human ether-à-go-go-related gene (hERG) potassium channel (human, UniProt Q12809)
# Experiment: primary screen, population patch clamp on CHO cells stably expressing hERG
# 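Note: peak tail current of the secondary pulse compared with the same well before compound.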
# Chain of human ether-à-go-go-related gene (hERG) potassium channel (Q12809 whole entry, looked up): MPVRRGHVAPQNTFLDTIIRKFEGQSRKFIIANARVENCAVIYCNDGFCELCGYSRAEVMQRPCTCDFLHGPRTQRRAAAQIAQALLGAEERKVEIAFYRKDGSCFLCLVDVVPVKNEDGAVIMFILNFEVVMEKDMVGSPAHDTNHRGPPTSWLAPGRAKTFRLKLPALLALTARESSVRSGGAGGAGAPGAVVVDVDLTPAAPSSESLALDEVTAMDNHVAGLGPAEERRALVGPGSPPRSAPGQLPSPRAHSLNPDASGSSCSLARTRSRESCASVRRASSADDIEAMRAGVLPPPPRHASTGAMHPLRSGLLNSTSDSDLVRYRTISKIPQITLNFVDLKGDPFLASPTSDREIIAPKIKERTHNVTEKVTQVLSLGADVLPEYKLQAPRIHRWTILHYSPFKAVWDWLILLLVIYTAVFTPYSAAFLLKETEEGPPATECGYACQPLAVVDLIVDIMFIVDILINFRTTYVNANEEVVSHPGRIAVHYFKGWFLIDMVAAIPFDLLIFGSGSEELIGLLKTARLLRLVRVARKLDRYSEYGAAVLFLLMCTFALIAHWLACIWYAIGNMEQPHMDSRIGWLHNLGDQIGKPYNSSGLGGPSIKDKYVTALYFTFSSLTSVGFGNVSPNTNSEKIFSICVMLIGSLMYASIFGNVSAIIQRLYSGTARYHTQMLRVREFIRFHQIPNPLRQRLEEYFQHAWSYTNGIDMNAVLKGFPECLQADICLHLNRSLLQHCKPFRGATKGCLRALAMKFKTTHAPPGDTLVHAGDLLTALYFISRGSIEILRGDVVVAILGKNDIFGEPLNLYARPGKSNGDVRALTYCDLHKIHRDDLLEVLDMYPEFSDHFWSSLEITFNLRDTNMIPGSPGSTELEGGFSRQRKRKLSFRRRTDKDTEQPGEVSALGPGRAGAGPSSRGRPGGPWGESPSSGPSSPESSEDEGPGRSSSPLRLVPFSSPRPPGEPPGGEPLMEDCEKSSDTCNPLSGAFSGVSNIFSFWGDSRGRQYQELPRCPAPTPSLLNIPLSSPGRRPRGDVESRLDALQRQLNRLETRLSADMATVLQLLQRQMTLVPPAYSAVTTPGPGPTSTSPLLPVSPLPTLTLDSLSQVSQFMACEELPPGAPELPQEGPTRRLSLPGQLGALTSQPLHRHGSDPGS
row,SMILES,"hERG current change (%, negative = inhibition) at 10uM"
1,O=C1CN(S(=O)(=O)c2ccccc2)CCN1S(=O)(=O)c1ccccc1,12.6%
2,N#Cc1ccc(CSc2nnc(NC(=O)c3ccc(=O)[nH]c3)s2)cc1,3.51%
3,CC(C)Oc1ccc(C(=O)N2CCCc3ccccc32)cc1,-18.1%
4,CN(CC(=O)NCCc1ccccc1)S(=O)(=O)c1cccc2nsnc12,-15.8%
5,COc1ccc2c(c1)CCc1sc(NC(=O)c3ccc(C)cc3)nc1-2,10.9%
6,CN(C)c1cccc(C(=O)Nc2ccc(N3CCOCC3)cc2)c1,2.06%
7,CCOC(=O)c1ccccc1NC(=O)CSc1nnc(COc2ccccc2C)n1C,-48.6%
8,O=C(O)c1nn(CCOc2cccc(Br)c2)c(=O)c2ccccc12,-14.4%
9,COc1ccc(C(=O)NNC(=O)Cc2ccc(Cl)cc2)cc1,-8.42%
10,CCNC(=O)C(=O)NCC(c1ccc2c(c1)OCO2)N1CCOCC1 (centres unmarked),8.97%
11,O=C1CC(C2CCCO2)C(=O)N1c1ccccc1 (centres unmarked),11%
12,NCC1(CC(=O)O)CCCCC1,10.8%
13,COc1ccc(NC(=O)CC2SC(=Nc3ccccc3)NC2=O)c(OC)c1 (centres unmarked),4.43%
14,C/C(=N\NC(=O)C1CC1c1ccccc1)c1cccs1 (centres unmarked),-7.37%
15,COCCn1c(=S)[nH]c2cc(C(=O)N3CCN(c4cccc(Cl)c4)CC3)ccc2c1=O,-47.8%
16,COC(=O)c1cc(S(=O)(=O)N2CCCCCC2)c[nH]1,0.97%
17,O=C(OCc1nc2ccsc2c(=O)[nH]1)c1ccco1,20.6%
18,COc1ccc(S(=O)(=O)N2CCN(Cc3ccccc3)CC2)cc1,-19.5%
19,COc1ccc(-n2nc(C(=O)NCC(=O)NC3CCCCC3)c3ccccc3c2=O)c(OC)c1,10.5%
20,CN(C(=O)Nc1ccccc1)C1CCCCC1,10.2%
21,Cc1ccc(C(=O)ONC(=O)c2ccc(Cl)cc2)cc1[N+](=O)[O-],2.37%
22,CCCc1cc(-c2n[nH]c(=S)n2CC)c2ccccc2n1,9.23%
23,CCOC(=O)CSc1nnc(NC(=O)c2cccc(S(=O)(=O)N3CCCC3)c2)s1,5.27%
24,CCCCNC(=O)CSc1ccc(S(=O)(=O)N2CCOCC2)cn1,-2.1%
25,O=S(=O)(c1ccc(S(=O)(=O)N(Cc2cccs2)CC2CCCO2)cc1)N1CCCCC1 (centres unmarked),-16.1%
26,CC(C)(C)n1nc2c(c1NC(=O)Cc1ccccc1)CS(=O)(=O)C2,16.1%
